# Measurements reported in PubChem BioAssay AID485281 (National Center for Advancing Translational Sciences (NCATS), 2010).
# The whole screen tested about 350,000 compounds, of which about 260 (0.074%) were called active. Inconclusive means that the source gave no clear call. Such entries were picked first, then a sample of the others. Calls follow the shape of the dose curve; as a rule, active = well fitted inhibition curve with a large enough effect; inconclusive = small, poorly fitted or top-dose-only effect; inactive = no such curve, though single readings can be large or run the other way. Potencies beside an inconclusive call are fits to weak or partial responses and may not hold up.
# Molecular target: Ferritin light chain (Equus caballus) (UniProt P02791)
# Test: qHTS Assay for Identification of Novel General Anesthetics; also: nearly all actives have a fitted effect of over 20% in size
# Details: apoferritin/1-aminoanthracene competitive binding, fluorescence; series mostly up to 77.5 µM
# Summary of the method: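 Steps: apoferritin (10 uM) was premixed with half-saturated 1-AMA in PBS, compounds were pin-transferred, plates stood 10 min at room temperature, fluorescence was read at 380/535 nm, and curves were fitted with a Hill equation.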
# Potency is read from the fitted curve at half-maximal effect; tags tell the direction and shape of the fitted curve.
# Chain of UniProt P02791 (P02791 whole entry, looked up): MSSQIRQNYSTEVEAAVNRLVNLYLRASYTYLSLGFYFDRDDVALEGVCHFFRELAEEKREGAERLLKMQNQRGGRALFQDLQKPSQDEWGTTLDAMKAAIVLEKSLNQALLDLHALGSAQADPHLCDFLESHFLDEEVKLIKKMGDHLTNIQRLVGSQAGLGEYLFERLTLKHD
row,Structure (SMILES),Potency
1,COc1cccc(OCc2cc(C(=O)NCC3CCCCC3)no2)c1,"inconclusive: 25.1 µM [inhibitor, partial curve]"
2,Cc1cc(C)n(C(=O)C(C)N2C(=O)c3ccccc3C2=O)n1 (stereo not drawn),"inconclusive: 39.8 µM [inhibitor, single point]"
3,C=C(C)C1CCC(C)=C1COC(=O)Nc1ccccc1 (stereo not drawn),"inconclusive: 14.1 µM [inhibitor, partial curve]"
4,Cc1cc(=O)[nH]c2c(N=Nc3ccc(O)cc3)c(N)nn12,"inconclusive: 25.1 µM [inhibitor, partial curve]"
5,COc1ccc(C(=O)C(OC(=O)CNC(=O)c2ccco2)c2ccccc2)cc1 (stereo not drawn),"inconclusive: 15.8 µM [inhibitor, partial curve]"
6,COc1ccc(C(CNC(=O)C(Cc2ccccc2)NC(N)=O)N(C)C)cc1 (stereo not drawn),inactive
7,O=C(NCC1OCCc2ccccc21)c1cc(COc2c(F)cccc2F)on1 (stereo not drawn),"inconclusive: 20 µM [inhibitor, partial curve]"
8,COc1ccc(F)cc1S(=O)(=O)Nc1cccc(-c2ccc(N3CCC(C)CC3)nn2)c1,inactive
9,O=C(NC1CCCCC1)C(c1ccc2ncccc2c1)N(Cc1ccc(F)cc1)C(=O)c1cccs1 (stereo not drawn),inactive
10,COc1cccc(CN2C(=O)CN(C3CCCCC3)C(=O)C2c2ccc(F)cc2)c1 (stereo not drawn),"inconclusive: 39.8 µM [inhibitor, partial curve]"
11,CCC(C)(C)NC(=O)C(c1cccc(OC)c1OC)N(CCC(C)C)C(=O)CCC(=O)Nc1cc(C)on1 (stereo not drawn),"inconclusive: 39.8 µM [inhibitor, single point]"
12,N#CCOC(=O)/C=C/c1ccc2c(c1)OCO2,"inconclusive: 17.8 µM [inhibitor, partial curve]"
13,C/C(=N\Nc1nc(N2CCCCC2)nc(N2CCOCC2)n1)c1cccs1,"inconclusive: 25.1 µM [inhibitor, partial curve]"
14,O=C(/C=C/C=C/c1ccccc1)CC1(O)C(=O)N(CCc2ccccc2)c2ccccc21 (stereo not drawn),"inconclusive: 35.5 µM [inhibitor, partial curve]"
15,COc1ccc(OCc2cc(C(=O)NCCN3CCCc4ccccc43)no2)c(Cl)c1,"inconclusive: 28.2 µM [inhibitor, partial curve]"
16,CCN(CC)c1ccc(/C=C/C(=O)C2C(=O)C=C(C)OC2=O)cc1 (stereo not drawn),inactive
17,CCCCS(=O)(=O)c1oc(-c2ccc(F)cc2)nc1S(=O)(=O)c1ccc(C)cc1,"inconclusive: 35.5 µM [inhibitor, partial curve]"
18,CC(C)COc1ccc(C(=O)Nc2cc(-c3ccccc3)no2)cc1,inactive
19,COc1ccccc1NC(=O)NCCC1=CCCCC1,"inconclusive: 20 µM [inhibitor, partial curve]"
20,COc1ccc(CCNC(=O)c2ccc3c(c2)OCCO3)cc1,inactive
21,CCCCC(CC)c1nnc(NC(=O)c2cccs2)s1 (stereo not drawn),"inconclusive: 39.8 µM [inhibitor, single point]"
22,Cc1cc(C)cc(C(=O)Nc2nc3ccccc3[nH]2)c1,inactive
23,O=C1/C(=C/c2ccccc2)SC(=S)N1N1C(=O)C2CC2C1=O (stereo not drawn),"inconclusive: 50.1 µM [inhibitor, single point]"

row,Structure (SMILES),Potency
1,Cc1ccc(C(=O)NCC(=O)NC23CC4CC(CC(C4)C2)C3)cc1,"inconclusive: 11.2 µM [inhibitor, partial curve]"
2,CN1\C(=C/C=C/C=C/C=[N+](C)C)C(C)(C)c2ccccc21,"inconclusive: 31.6 µM [inhibitor, partial curve]"
3,Cc1ccc(-c2nc(CS(=O)CC(=O)NCc3ccc4c(c3)OCO4)c(C)o2)cc1 (stereo not drawn),"inconclusive: 25.1 µM [inhibitor, partial curve]"
4,COc1ccc(/C=C/C(=O)Nc2nc(-c3cccs3)ns2)cc1OC,inactive
5,O=c1cc(N2CCCCC2)c(-c2ccccc2)nn1Cc1cccc(F)c1,"inconclusive: 25.1 µM [inhibitor, partial curve]"
6,CC(C)CN(CC(C)C)c1ccc(/C=N/n2cnnc2)cc1[N+](=O)[O-],"inconclusive: 35.5 µM [inhibitor, partial curve]"
7,COc1ccc(C(=O)Nc2cc(C(=O)c3ccccc3)c(C)oc2=O)cc1,"inconclusive: 20 µM [inhibitor, partial curve]"
8,Cc1ccc(/C=C/c2ccc(=O)n(Cc3ccc(Cl)cc3Cl)n2)cc1,inactive
9,CC1=C(c2ccc(C(C)C)cc2)S(=O)(=O)N=C1N1CCC(C(=O)NCCc2ccco2)CC1,"inconclusive: 22.4 µM [inhibitor, partial curve]"
10,Cc1cc(=O)oc2ccc(OC(C)C(=O)O)cc12 (stereo not drawn),inactive
11,c1ccc(CCNc2c3c(nc4ncnn24)CCC3)cc1,inactive
12,CCOc1cc(/C=C\[N+](=O)[O-])ccc1OCC(=O)Nc1ccccc1C,inactive
13,COc1cc(C(=O)O[C@H]2CC(C)=CC[C@@]3(C)CC[C@@](O)(C(C)C)[C@H]23)ccc1O,"inconclusive: 25.1 µM [inhibitor, single point]"
14,CNc1nc2c(N)ncnc2n1[C@@H]1O[C@@H]2COP(=O)(O)O[C@H]2[C@H]1O,inactive
15,CCc1ccc(S(=O)(=O)Nc2cccc(-c3ccc(N4CCOCC4)nn3)c2)cc1,"inconclusive: 15.8 µM [inhibitor, partial curve]"
16,COC(=O)CSc1nnc(NC(=O)C2CC(=O)N(c3ccc(F)cc3)C2)s1 (stereo not drawn),"inconclusive: 17.8 µM [inhibitor, partial curve]"
17,Cc1cccc(NC(=O)Cc2ccc(F)cc2)c1,"inconclusive: 20 µM [inhibitor, partial curve]"
18,CN(C)c1cccc(C(=O)NCc2ccccc2)c1,"inconclusive: 31.6 µM [inhibitor, partial curve]"
19,O=C(NCCCN1CCCCCC1)c1ccc2c(c1)NC(=O)C(N1CCOCC1)S2 (stereo not drawn),"inconclusive: 12.6 µM [inhibitor, partial curve]"
20,CC(=O)c1ccc(-c2ccc(C3C4C=CCCC4(C)C(=O)N3Cc3ccccc3)c(F)c2)cc1 (stereo not drawn),"inconclusive: 28.2 µM [inhibitor, partial curve]"
21,N/C(=N\OC(=O)CCCc1ccccc1)c1ccccc1Cl,"inconclusive: 28.2 µM [inhibitor, partial curve]"
22,COc1ccc(/C=C/C(=O)Nc2ccc3nc(N4CCC(C)CC4)cc(C)c3c2)cc1,inactive
23,C=CCOc1c(CNc2cccc(C(=O)O)c2)cccc1OCC,inactive

row,Structure (SMILES),Potency
1,CCCN1Cc2cccc(C(=O)Nc3cccc(C(=O)OCC)c3)c2C1=O,"inconclusive: 3.55 µM [inhibitor, full curve, poor fit]"
2,O=C(CSc1nnc(Nc2ccccc2F)s1)c1cc2ccccc2o1,"inconclusive: 31.6 µM [inhibitor, single point]"
3,COc1ccc(Br)cc1-c1nc(CCl)cs1,"inconclusive: 35.5 µM [inhibitor, partial curve]"
4,NC1=NC(c2cccc(Cl)c2)n2c(nc3ccccc32)N1 (stereo not drawn),"inconclusive: 28.2 µM [inhibitor, single point]"
5,S=C(Nc1ccccc1Cl)N1CCCCCC1,"inconclusive: 28.2 µM [inhibitor, partial curve]"
6,Cc1ccc(C)c(NC(=O)c2nnn(Cc3ccccc3)c2N)c1,"inconclusive: 15.8 µM [inhibitor, partial curve]"
7,Clc1ccc(N2CCCCCC2)nn1,"inconclusive: 20 µM [inhibitor, partial curve]"
8,CCOc1ccccc1N1CCN(C(=O)c2cn(CC3CCCCC3)nn2)CC1,"inconclusive: 15.8 µM [inhibitor, partial curve]"
9,O=C(COC(=O)C1COc2ccccc2O1)NC(=O)NC1CCCCC1 (stereo not drawn),"inconclusive: 17.8 µM [inhibitor, partial curve]"
10,CC(Oc1ccc(Br)cc1)C(=O)O/N=C(\N)c1ccncc1 (stereo not drawn),"inconclusive: 39.8 µM [inhibitor, partial curve]"
11,CCCN1CCc2c(sc(NC(=O)c3ccc(S(=O)(=O)N(C)c4ccccc4)cc3)c2C(N)=O)C1,"inconclusive: 25.1 µM [inhibitor, partial curve]"
12,COc1ccc(NS(=O)(=O)c2ccc(NC(=S)NC(=O)c3ccc(Br)cc3)cc2)nn1,inactive
13,Cc1ccc(C(OCC(O)CNCc2ccc(F)cc2)c2ccccc2)cc1 (stereo not drawn),inactive
14,C=CCN(CC=C)c1ccc(N2C(=O)C3CCCCC3C2=O)cc1[N+](=O)[O-] (stereo not drawn),"inconclusive: 14.1 µM [inhibitor, partial curve]"
15,Cc1cc(Cl)c(S(=O)(=O)NC2CCCC2)cc1OCC(=O)NC1CCCCC1,inactive
16,Cc1ccc(OCC(=O)NC2CCCCCC2)cc1C,"inconclusive: 25.1 µM [inhibitor, partial curve]"
17,Cc1ccc(NS(=O)(=O)N2CCOCC2)cc1Cl,"inconclusive: 14.1 µM [inhibitor, partial curve]"
18,C/C(CC(=O)NCc1ccco1)=N\NC(=O)Cc1ccc(-c2ccccc2)cc1,"inconclusive: 10 µM [inhibitor, full curve]"
19,N#C/C(=C\c1ccc(-c2ccccc2[N+](=O)[O-])o1)C(=O)N1CCOCC1,"inconclusive: 35.5 µM [inhibitor, single point]"
20,Cc1ccc(OCC(=O)Nc2ccc3c(c2)nc(CCN2CCC(C)CC2)n3C)cc1,"inconclusive: 39.8 µM [inhibitor, single point]"
21,O=C(Nc1cccn(Cc2ccccc2)c1=O)NC1CCCCC1,"inconclusive: 8.91 µM [inhibitor, full curve]"
22,O/N=C1/C2C3C(Br)C4C5CC(C1C53)C24 (stereo not drawn),"inconclusive: 28.2 µM [inhibitor, partial curve]"
